# Screen size: about 310,000 compounds; about 2,200 (0.71%) showed an effect of 50% or more. The effect is printed as a negative number. The list shows a part of the results.
# Target: human ether-à-go-go-related gene (hERG) potassium channel (human, UniProt Q12809)
# Experiment: primary screen, population patch clamp on CHO cells stably expressing hERG
# Chain of human ether-à-go-go-related gene (hERG) potassium channel (Q12809 whole entry, looked up): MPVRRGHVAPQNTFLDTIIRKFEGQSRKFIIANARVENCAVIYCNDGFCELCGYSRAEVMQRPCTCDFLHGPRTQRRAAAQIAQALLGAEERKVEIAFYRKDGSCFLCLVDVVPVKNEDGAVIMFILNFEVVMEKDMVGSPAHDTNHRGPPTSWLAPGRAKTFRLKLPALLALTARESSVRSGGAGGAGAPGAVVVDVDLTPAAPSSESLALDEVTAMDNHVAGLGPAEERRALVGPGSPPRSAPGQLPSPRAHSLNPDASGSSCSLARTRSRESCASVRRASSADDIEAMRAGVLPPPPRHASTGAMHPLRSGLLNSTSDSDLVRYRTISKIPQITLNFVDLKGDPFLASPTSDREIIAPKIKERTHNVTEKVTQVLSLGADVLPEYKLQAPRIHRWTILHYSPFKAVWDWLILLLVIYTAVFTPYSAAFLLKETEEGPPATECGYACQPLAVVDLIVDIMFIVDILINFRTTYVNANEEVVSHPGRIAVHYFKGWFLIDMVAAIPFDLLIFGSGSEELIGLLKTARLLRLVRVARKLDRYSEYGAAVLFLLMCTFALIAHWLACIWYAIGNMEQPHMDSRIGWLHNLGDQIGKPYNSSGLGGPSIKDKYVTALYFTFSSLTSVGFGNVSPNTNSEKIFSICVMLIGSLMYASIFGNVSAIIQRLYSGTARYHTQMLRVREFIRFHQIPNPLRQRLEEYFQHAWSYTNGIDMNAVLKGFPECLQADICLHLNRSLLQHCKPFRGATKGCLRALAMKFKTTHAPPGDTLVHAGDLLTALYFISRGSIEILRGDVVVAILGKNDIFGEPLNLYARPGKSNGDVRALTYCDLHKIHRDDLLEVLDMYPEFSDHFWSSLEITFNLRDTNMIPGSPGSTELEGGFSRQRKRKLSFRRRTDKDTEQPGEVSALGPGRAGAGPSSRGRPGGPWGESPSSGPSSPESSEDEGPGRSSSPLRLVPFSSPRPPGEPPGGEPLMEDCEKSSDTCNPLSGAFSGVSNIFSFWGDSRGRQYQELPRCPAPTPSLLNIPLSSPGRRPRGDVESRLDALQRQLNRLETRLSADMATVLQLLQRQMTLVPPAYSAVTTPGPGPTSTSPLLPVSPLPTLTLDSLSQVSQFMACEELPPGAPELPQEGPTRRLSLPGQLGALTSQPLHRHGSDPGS
row,SMILES,"hERG current change (%, negative = inhibition) at 1uM [%]"
1,O=C(NNC(=S)NC(=O)C12CC3CC(CC(C3)C1)C2)c1ccncc1,14.1
2,COc1ccc([C@H]2CC(=O)C=C(c3cccc(C(C)C)c3)C2)cc1,9.78
3,CCOc1ccc(S(=O)(=O)N2CCN=C2c2ccccc2)cc1,-6.45
4,COc1cccc(CNC(=O)CCC2CCCN(C(=O)c3cscn3)C2)c1 (centres unmarked),11.3
5,COc1ccc(CCNC(=O)c2cc(S(=O)(=O)N3CCOCC3)ccc2F)cc1,7.05
6,CCC(CC)NC(=O)COC(=O)c1cc(SC)ccc1Cl,7.25
7,O=C(Nc1cc(SCCO)cc([N+](=O)[O-])c1)c1ccc(Br)o1,6.99
8,COC(=O)Cc1ccc(NC(=S)NCc2ccc(Cl)cc2)cc1,3.97
9,Cc1onc(-c2ccccc2Cl)c1C(=O)Nc1ccccc1,6.42
10,COc1ccc(NC(=O)C2CCN(c3cnccn3)CC2)cc1Cl,6.69
11,Cc1cc(C)c(C)c(S(=O)(=O)NCc2ccc(C(=O)N3CCCC3)cc2)c1C,12.4
12,CNc1nc2cccnc2s1,14.5
13,O=C(c1ccc(C#CC2(O)CCCCC2)cc1)N1CCN(C(c2ccccc2)c2ccccc2)CC1,8.48
14,NC(=O)Cn1c(=O)n(CCCC(=O)NC2CCN(Cc3ccccc3)CC2)c(=O)c2ccccc21,1.96
15,COC(=O)c1ccc(N2CCc3ccccc32)c([N+](=O)[O-])c1,19.5
16,C[C@@H]1C(=O)O[C@@H]2CC34[C@H]5C[C@@H](C(C)(C)C)C36[C@H](OC(=O)[C@@H]6O)OC4(C(=O)O5)[C@@]12O (some centres unmarked),12.3
17,COCCN(C(=O)CC(C)(C)C)c1nnc(-c2cccnc2)s1,6.36
18,O=C1SCC(c2ccc(Cl)cc2Cl)=NN1Cc1nnc(-c2ccccc2)o1,10.6
19,Nc1nc(-c2ccccc2)cc(-c2ccccc2O)n1,5.13

row,SMILES,"hERG current change (%, negative = inhibition) at 1uM [%]"
1,C/C(=N/OCO/N=C(\C)c1ccccc1F)c1ccccc1F,-1.93
2,Cc1ccc2nc(SCC(=O)N3CCC(C)CC3)nc(=O)n2c1,-3.85
3,Fc1cnc(N2CCOCC2)nc1N1CCOCC1,4.55
4,Cc1ccc(S(=O)(=O)N2CCN(C(=O)COC(=O)C3(C)CC3(Cl)Cl)CC2)c(C)c1 (centres unmarked),3.88
5,CCOC(=O)N1CCN(Cc2ccc3ccccc3c2)CC1,15.1
6,O=C(NCC(=O)N(c1cccnc1)C(C(=O)NC1CCCC1)c1cccs1)c1ccco1 (centres unmarked),11.6
7,Cc1ccc(S(=O)(=O)N2CCCCC2)cc1NC(=O)C1CCCO1 (centres unmarked),-0.457
8,COc1ccc(-c2nnc(SCC(=O)Nc3cc(C)on3)o2)cc1,4.41
9,Nc1ccc2nn(-c3cc([N+](=O)[O-])ccc3O)nc2c1,11.2
10,CCc1ccc(C(O)(CC)C(CN2CCOCC2)c2ccccc2)cc1.Cl (centres unmarked),11.3
11,COc1ccccc1OCc1ccc(C(=O)N2N=C(C(F)F)CC2(O)C(F)F)o1 (centres unmarked),6.02
12,Cc1nc(NCC2CCCO2)c2nnn(Cc3ccccc3Cl)c2n1 (centres unmarked),0.623
13,CC(C)(C)NC(=O)NC(=O)COC(=O)c1ccc(OC(F)(F)F)cc1,5.72
14,COc1ccc(C(=O)Cc2cc(OC)c(OC)cc2C(=O)c2ccccc2F)cc1OC,-0.899
15,O=C(CSc1ncnc2c1cnn2-c1cccc(Cl)c1)NCC1CCCO1 (centres unmarked),11.5
16,O=C(Nc1ccccn1)C(F)(F)C(F)(F)C(F)(F)C(F)(F)C(=O)Nc1ccccn1,7.68
17,O=C(CCc1ccccc1)OCC(=O)c1ccc(Br)cc1,14.7
18,S=C(Nc1ccccc1)Nc1cccc(Br)c1,8.26
19,CSC(=S)N/N=C/c1ccccc1,16.6

row,SMILES,"hERG current change (%, negative = inhibition) at 1uM [%]"
1,Cl.O=[N+]([O-])c1ccc(N2CCCNCC2)c2ncccc12,-17.1
2,CCOc1ccc(NC(=O)C(c2ccccn2)N(C(=O)CCl)c2ccc(OC)cc2)cc1 (centres unmarked),-0.479
3,CCOc1cc(NC(=O)c2ccccn2)c(OCC)cc1NC(=O)c1cccc(C)c1,-3.34
4,COc1cc(OC)c(OC)cc1CN1CCCC(C(=O)c2ccccc2SC)C1 (centres unmarked),-15.5
5,CCOC(=O)C1(C)C=C(Nc2cccc(OC)c2)C(=O)N1c1ccccc1 (centres unmarked),6.39
6,CCOCCCNC(=O)C(NC(=O)c1ccc(NC(C)=O)cc1)c1ccc(C)cc1 (centres unmarked),-15.3
7,CN(C(=O)CSc1nc2[nH]ncc2c(=O)[nH]1)c1ccccc1,8.5
8,COCCN(C(=O)COc1ccccc1C#N)c1c(N)n(Cc2ccccc2)c(=O)[nH]c1=O,11.1
9,Cc1cccc(N(C(=O)CCC(=O)Nc2cc(C)on2)C(C(=O)NC2CCCC2)c2ccccc2)c1 (centres unmarked),13
10,O=C(O)c1ccc(COc2ccc(/C=N/NC(=O)c3cccs3)cc2)cc1,4.37
11,O=C(O)CCCc1ccc2ccc3cccc4ccc1c2c34,13.3
12,Cc1ccc(S(=O)(=O)NN2C(=O)c3ccccc3NC2c2ccccn2)cc1 (centres unmarked),5.92
13,CCCN(C1CCS(=O)(=O)C1)S(=O)(=O)c1ccc2ccccc2c1 (centres unmarked),-3.62
14,O=C(NC(=S)NCC1CCCO1)c1ccccc1F (centres unmarked),9.67
15,NC(=O)CSc1nnc(NC(=O)c2ccc(Br)o2)s1,16
16,COC(=O)c1cc(S(=O)(=O)N2CCC(c3ccccc3)C2)c[nH]1 (centres unmarked),2.25
17,COc1ccc(NC(=O)c2ccc(Br)o2)cc1,4.84
18,COc1ccc2cc(C)c(SCC(=O)Nc3cc(C)on3)nc2c1,9.52

# From PMC4336329 (PLoS ONE, 2015)
